Laboratory results reported in the supplement of paper PMC6135742.
Structures can show the parent of a compound that is named as a salt. ± gives the standard deviation of the averaged measurements. Whole data set: some 2,600 compounds, median “MBP+ mature oligodendrocyte number relative to DMSO vehicle control” near -0.34, cut for the highest 2% near 13. The list shows a part of the results.

Test system: jimpy (Plp1 jimpy) mouse iPSC-derived oligodendrocyte progenitor cells
Test: MBP+ mature oligodendrocyte number relative to DMSO vehicle control (SDs above negative control mean); higher = more surviving jimpy oligodendrocytes (rescue)
Conditions: 10 µM; 3 days
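Further: 10 µM single dose with 3-day oligodendrocyte differentiation.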

| SMILES | MBP+ mature oligodendrocyte number |
| --- | --- |
| COc1cc(Nc2c(C#N)cnc3cc(OCCCN4CCN(C)CC4)c(OC)cc23)c(Cl)cc1Cl [Bosutinib (SKI-606)] | < -6.7 |
| COc1cc(Nc2c(C#N)cnc3cc(OCCCN4CCN(C)CC4)c(OC)cc23)c(Cl)cc1Cl [Bosutinib] | < -3.34 |
| CCCCc1oc2ccc(NS(C)(=O)=O)cc2c1C(=O)c1ccc(OCCCN(CCCC)CCCC)cc1 [Dronedarone HCl] | < -4.81 |
| CCC1(c2ccccc2)C(=O)NCNC1=O [Primidone] | -0.543 ± 0.74 |
| C[C@]12CCC(=O)C=C1CC[C@@H]1[C@@H]2CC[C@@]2(C)[C@H]1CC[C@]2(O)C(=O)CO [Cortexolone] | 0.431 |
| COC(=O)C1=C(C)NC(C)=C(C(=O)OC(C)(C)CN(C)CCC(c2ccccc2)c2ccccc2)C1c1cccc([N+](=O)[O-])c1 (stereo unspecified) [Lercanidipine hydrochloride hemihydrate] | < -3.34 |
| O=C(Nc1cccnc1)c1cc(-c2ccnc(F)c2)ccc1OCc1ccccc1 | -0.282 |
| COc1cc2ncnc(Nc3cccc(Br)c3)c2cc1OC | -1.77 |
| COc1ccc(Cl)cc1NC(=O)Nc1cc(C)nc2ccccc12 | -4.52 |
| CN(C)CCC(c1ccc(Br)cc1)c1ccccn1 (stereo unspecified) [Brompheniramine hydrogen maleate] | -2.74 |
| COc1ccccc1N1CCN(CCCNc2c(C)c(=O)n(C)c(=O)n2C)CC1 [Urapidil, 5-Methyl-] | -0.354 |
| O=C1CC[C@@H](C(=O)N2CSC[C@H]2C(=O)O)N1 [Pidotimod] | 1.61 |
| Oc1c(Cl)cc(Cl)c2cccnc12 [Chloroxine] | -2.36 |
| c1ccc(-c2ccc(C(c3ccccc3)n3ccnc3)cc2)cc1 (stereo unspecified) [Bifonazole] | 52.3 |
| Nc1nccc(Oc2ccc(NC(=O)c3c[nH]cc(-c4ccc(F)cc4)c3=O)cc2F)c1Cl | 7.17 |
| C[C@H]1[C@H](C)CC[C@]2(C(=O)O)CC[C@]3(C)C(=CC[C@@H]4[C@@]5(C)CC[C@H](O)C(C)(C)[C@@H]5CC[C@]43C)[C@H]12 [Ursolic Acid] | -4.53 |
| O=C(c1ccc(F)cc1)C1CCN(CCn2c(=O)[nH]c3ccccc3c2=O)CC1 [Ketanserin] | -1.28 |
| O=C(c1ccc(F)cc1)C1CCN(CCn2c(=O)[nH]c3ccccc3c2=O)CC1 [Ketanserin tartrate] | -0.568 |
| NC(=O)Nc1cc(-c2cccc(F)c2)sc1C(=O)N[C@H]1CCCNC1 | < -5.15 |
| CCN(CC)C(=O)c1ccc(O)c(OC)c1 [Vanillic acid diethylamide] | -3.84 |
| NC1(C(=O)O)CC1 [1-Aminocyclopropanecarboxylic acid hydrochloride] | -1.73 |
| O=C1NC(=O)c2cc(Nc3ccccc3)c(Nc3ccccc3)cc21 | -2.51 |
| O=C(O)CCc1ccc(NCc2cccc(Oc3ccccc3)c2)cc1 | 2.04 ± 2.8 |
| CCCOc1ccc2[nH]c(NC(=O)OC)nc2c1 [Oxibendazole] | -4.34 |
| O=C(CCCCCN1CCN(c2ccccc2-c2ccccc2)CC1)NC1CCCc2ccccc21 (stereo unspecified) [LP 12 hydrochloride hydrate] | -2.39 |
| CSC(=N)N [S-Methylisothiourea hemisulfate] | 0.0294 |

| SMILES | MBP+ mature oligodendrocyte number |
| --- | --- |
| CC(C)S(=O)(=O)N[C@H]1CCOC[C@@H]1c1ccc(-c2ccc(C#N)s2)cc1 | -3.15 |
| CCS(=O)(=O)N1CC(CC#N)(n2cc(-c3ncnc4[nH]ccc34)cn2)C1 | 0.342 |
| Cl.N[C@@H](CCC(=O)O)C(=O)O [L-Glutamic acid hydrochloride] | -0.701 |
| O=C1NCC2(CCN(CCc3ccccc3)CC2)O1 [Fenspiride HCl] | 21.6 |
| O=C1NCC2(CCN(CCc3ccccc3)CC2)O1 [Fenspiride hydrochloride] | 10.5 |
| Clc1ccc2c(c1)CCc1cccnc1C2=C1CCNCC1 [Desloratadine] | -5.93 |
| Cc1cnc(Nc2ccc(OCCN3CCCC3)cc2)nc1Nc1cccc(S(=O)(=O)NC(C)(C)C)c1 | < -6.01 |
| Cn1ncnc1[C@H]1c2n[nH]c(=O)c3cc(F)cc(c23)N[C@@H]1c1ccc(F)cc1 | -4.41 |
| CCCNC(=O)NS(=O)(=O)c1ccc(Cl)cc1 [Chlorpropamide] | 0.796 ± 2.8 |
| CCN(CC)C(C)CN1c2ccccc2Sc2ccccc21 (stereo unspecified) [Ethopropazine hydrochloride] | -3.46 |
| O=C(Cc1ccccc1)Nc1nnc(CCSCCc2nnc(NC(=O)Cc3ccccc3)s2)s1 | 0.502 |
| COc1ccc(-c2nc(N3CCOCC3)c3sc(CN(C)c4ncc(C(=O)NO)cn4)cc3n2)cn1 | < -6.01 |
| COc1cc(-c2ncn(/C=C\C(=O)OC(C)C)n2)cc(C(F)(F)F)c1 | -6.27 |
| N=C(N)NCCCCNC(=N)N [Arcaine sulfate] | -1.45 |
| CO[C@H]1/C=C/O[C@@]2(C)Oc3c(C)c(O)c4c(O)c(c5c(nc6cc(C)ccn65)c4c3C2=O)NC(=O)/C(C)=C\C=C\[C@H](C)[C@H](O)[C@@H](C)[C@@H](O)[C@@H](C)[C@H](OC(C)=O)[C@@H]1C [Rifaximin] | 1.96 |
| Clc1cccc(Cl)c1NC1=NCCN1 [Clonidine hydrochloride] | -0.786 |
| Clc1cccc(Cl)c1NC1=NCCN1 [Clonidine HCl] | -0.892 |
| CN1CCN(C2Cc3ccccc3Sc3ccc(Cl)cc32)CC1 (racemic) [(±)-Octoclothepin maleate] | -3.62 |
| C[C@]12C=CC(=O)N[C@@H]1CC[C@@H]1[C@@H]2CC[C@]2(C)[C@@H](C(=O)Nc3cc(C(F)(F)F)ccc3C(F)(F)F)CC[C@@H]12 [Dutasteride] | 2.99 |
| CCCCCCCCCCCCCCCC(=O)OC[C@H](O)[C@H]1OC(=O)C(O)=C1O [L-Ascorbyl 6-palmitate] | -1.84 |
| COc1ccc(C2(O)OC(=O)C(c3ccc4c(c3)OCO4)=C2Cc2cc(OC)c(OC)c(OC)c2)cc1 (stereo unspecified) | 1.07 |
| Cc1csc(-c2nnc(Nc3ccc(Oc4ncccc4-c4ccnc(N)n4)cc3)c3ccccc23)c1 | -2.2 |
| Nc1nc2c(ncn2COC(CO)CO)c(=O)[nH]1 [Ganciclovir] | 0.369 ± 1.4 |
| NCCCCCC(=O)O | -0.287 |
| CC(C)CCNC(=O)[C@H](CC(C)C)NC(=O)[C@H]1O[C@@H]1C(=O)O [Loxistatin Acid (E-64C)] | -1.46 |
